# PubChem BioAssay AID485281 (National Center for Advancing Translational Sciences (NCATS), 2010)
# “And” between values parts separate entries of the source, which are not always exact repeats. Equal entries are not always repeated. In all, about 350,000 compounds went through this assay and about 260 (0.074%) were called active. The inconclusive results got no clear call from the source; some entries with a clear call stand among them for comparison. Calls follow the shape of the dose curve; as a rule, active = well fitted inhibition curve with a large enough effect; inconclusive = small, poorly fitted or top-dose-only effect; inactive = no such curve, though single readings can be large or run the other way. Potencies of inconclusive entries are doubtful fits and often do not repeat.
# Biological target: Ferritin light chain (Equus caballus) (UniProt P02791)
# Chain of UniProt P02791 (P02791 whole entry, looked up): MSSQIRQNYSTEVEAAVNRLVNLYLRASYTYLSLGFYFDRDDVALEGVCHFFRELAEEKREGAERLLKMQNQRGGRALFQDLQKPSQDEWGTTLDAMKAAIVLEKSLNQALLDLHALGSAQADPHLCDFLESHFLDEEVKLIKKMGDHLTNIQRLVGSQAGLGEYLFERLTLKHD
# Test: qHTS Assay for Identification of Novel General Anesthetics; also: nearly all actives have a fitted effect of over 20% in size
# Details: apoferritin/1-aminoanthracene competitive binding, fluorescence; activity change, negative = displacement: at 77.5 µM (top of the series)
# In short: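 In PBS, apoferritin at 10 uM is loaded with 1-AMA from a 50% saturated solution. After 10 min of compound exposure at ambient temperature, reduced 535 nm fluorescence indicates probe displacement.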
# % is scaled to controls: 0 for no effect and ±100 for the full control effect; potency is read from the fitted curve at half-maximal effect; tags tell the direction and shape of the fitted curve.
Structure (SMILES),"activity change, negative = displacement",Potency
C[C@]12CCC3C(C=CC4=CC(=O)CC[C@]43C)C1CC[C@]2(O)CCC(=O)O (some centres not stated),inactive: 4.13%,
COc1ccc(CN2C(=O)NC(=O)/C(=C\c3ccc(OC)c(OC)c3OC)C2=O)cc1,,"inconclusive: 28.2 µM [inhibitor, single point]"
CN(C)C(=O)Oc1ccc(C(=O)c2ccccc2)cc1,inactive: -11.2%,
C[C@@H]1CC[C@H]2[C@@H](C)C(=O)O[C@@H]3OC4(C)CC[C@@H]1[C@]32OO4,inactive: -22.6%,
CCCCc1ccc(C(=O)O)nc1,inactive: 2.57% [at 29.3 µM],
CNC(=O)c1cccn(Cc2ccc(C(F)(F)F)cc2)c1=O,inactive: -1.56%,
Cc1cc(C=C(C#N)C#N)ccc1N1CCCC1,,"inconclusive: 31.6 µM [inhibitor, partial curve]"
O=c1c2ccccc2nc(/C=C/c2ccccc2O)n1-c1ccccc1O,inactive: -0.0589%,
CCC(=NCc1ccc2c(c1)OCO2)c1c(O)n(C2CCCCC2)c(=O)[nH]c1=O,inactive: -8.84%,
CN(Cc1ccccc1)C1CCCN(C(=O)COc2ccccc2Cl)C1 (configuration not stated),,"inconclusive: 39.8 µM [inhibitor, single point]"
O=C(CCN1C(=O)COc2ccccc21)N1CCC2(CC1)OCCO2,inactive: -3.42%,
O=C(Nc1nnc(SCc2ccccc2Cl)s1)C1COc2ccccc2O1 (configuration not stated),,"inconclusive: 5.01 µM [inhibitor, full curve, poor fit]"
CCc1ccc(-c2nn(Cc3ccccc3)cc2C=O)cc1,,"inconclusive: 35.5 µM [inhibitor, partial curve]"
COc1cc(-n2c(=S)[nH]c3ccccc3c2=O)c(Cl)cc1Cl,,"inconclusive: 56.2 µM [inhibitor, single point]"
CCCCN1C(=O)/C(=C/c2ccc(N(C)C)cc2)C(=O)N(Cc2ccco2)C1=O,,"inconclusive: 39.8 µM [inhibitor, single point]"
Cc1cc(/C=C2/C(=O)NC(=O)N(Cc3ccco3)C2=O)c(C)n1-c1ccccc1,,"inconclusive: 15.8 µM [inhibitor, partial curve]"
CC1(C(O)(C#CCN2CCCCC2)c2ccccc2)CCCC1 (configuration not stated),,"inconclusive: 31.6 µM [inhibitor, partial curve]"
c1ncn(C23CC4CC(CC(C4)C2)C3)n1,,"inconclusive: 50.1 µM [inhibitor, single point]"
Cn1c(O)c(/C=C/C=Nc2ccccc2)c(=O)n(C)c1=S,inactive: 1.22%,
CCCCCCCCCc1ccc(OCCOCCOCCOCCOCCOCCOCCOCCOCCO)cc1,,"inconclusive: 35.5 µM [inhibitor, partial curve]"
Cc1ccsc1C(=O)C1CCCN(Cc2ccc(O)cc2)C1 (configuration not stated),,"inconclusive: 22.4 µM [inhibitor, partial curve]"
CC(=O)c1ccc(OC(NC(=O)Cc2ccccc2)C(Cl)(Cl)Cl)cc1 (configuration not stated),,"inconclusive: 35.5 µM [inhibitor, partial curve]"
COc1cccc(NC(=O)CCc2nc(-c3ccc(C(C)(C)C)cc3)no2)c1,,"inconclusive: 22.4 µM [inhibitor, partial curve]"

Structure (SMILES),"activity change, negative = displacement",Potency
CCC(CO)Nc1ccc([N+](=O)[O-])c2cccnc12 (configuration not stated),,"inconclusive: 25.1 µM [inhibitor, partial curve]"
CCN(CC)C(=O)Oc1ccc(NC(=O)N2CCOCC2)cc1,,"inconclusive: 28.2 µM [inhibitor, partial curve]"
CC(C)OC(=O)Nc1cccc(Cl)c1,,"inconclusive: 35.5 µM [inhibitor, single point]"
Cc1sc2c(c1C)C(c1cccs1)=NCC(=O)N2CC(=O)NCc1cccs1,,"inconclusive: 12.6 µM [inhibitor, partial curve]"
Nc1ccc2cc(Br)ccc2c1,,"inconclusive: 25.1 µM [inhibitor, single point]"
CN(C)c1ccc(/C=C2/C(=O)NC(=O)N(CCc3ccc(F)cc3)C2=O)cc1,inactive: -0.766%,
CCC/C(=N\O)c1c[nH]c2ccccc12,,"inconclusive: 35.5 µM [inhibitor, partial curve]"
CCN1C(=O)CC(c2cccnc2)=Nc2ccccc21,inactive: -6.16%,
Cn1c(O)c(C=NC2CCCCC2)c(=O)[nH]c1=S,,"inconclusive: 28.2 µM [inhibitor, partial curve, poor fit]"
CC(C)(C)c1ccc(O)c(N=Cc2c(O)ccc3ccccc23)c1,,"inconclusive: 11.2 µM [inhibitor, partial curve]"
N[C@@H](Cc1c[nH]c2ccccc12)c1nnc(SCc2ccccc2)o1,,"inconclusive: 31.6 µM [inhibitor, partial curve]"
O=C(Nc1cccc(C(F)(F)F)c1)c1cccn(Cc2ccc3c(c2)OC(F)(F)O3)c1=O,,"inconclusive: 4.47 µM [inhibitor, full curve, poor fit]"
O=C(N/N=C/c1c(O)n(Cc2ccc(F)cc2)c(=O)[nH]c1=O)c1ccccc1O,inactive: 5.94%,
O=S(=O)(NC1CCCCC1)OCC(Cl)(Cl)Cl,,"inconclusive: 12.6 µM [inhibitor, partial curve]"
Cc1ccc2nsnc2c1-n1c(C)nc2ccccc2c1=O,,"inconclusive: 39.8 µM [inhibitor, partial curve]"
CCOc1ccc(N2C(=O)NC(=O)/C(=C\c3ccccc3[N+](=O)[O-])C2=O)cc1,inactive: -9.95%,
COP(=S)(OC)Oc1ccc([N+](=O)[O-])cc1,,"inconclusive: 14.1 µM [inhibitor, partial curve]"
Cc1cccc(Cn2cc(C=O)c3ccccc32)c1,,"inconclusive: 28.2 µM [inhibitor, single point]"
O=P(O)(O)/C=C(\Cl)c1ccccc1,inactive: 2.14%,
Cc1ccc2cccc(OC(=O)N(C)c3ccccc3)c2n1,,"inconclusive: 31.6 µM [inhibitor, partial curve]"
Nc1ccccc1C(=O)c1ccccc1,,"inconclusive: 39.8 µM [inhibitor, single point]"
Cc1ccc(-n2c(O)c(/C=N/Nc3ccccc3)c(=O)[nH]c2=O)cc1C,,"inconclusive: 12.6 µM [inhibitor, partial curve]"
CO/C1=C\C(C)=C\[C@@H](C)[C@@H](O)[C@@H](C)C/C(C)=C/C=C/[C@H](OC)[C@@H]([C@@H](C)[C@@H](O)[C@H](C)[C@@]2(O)C[C@@H](O)[C@H](C)C(C(C)C)O2)OC1=O (some centres not stated),inactive: -7.03%,

Structure (SMILES),"activity change, negative = displacement",Potency
CC(C)C[C@H]1C(=O)N2CCC[C@@H]2[C@@]2(O)O[C@](NC(=O)[C@@H]3C=C4c5cccc6[nH]cc(c56)C[C@@H]4N(C)C3)(C(C)C)C(=O)N12,inactive: 1.85% [at 29.3 µM],
Cn1c(O)c(/C=N/Nc2ccccc2)c(=O)n(C)c1=O,,"inconclusive: 25.1 µM [inhibitor, single point]"
CC(=O)[C@H]1CC[C@H]2[C@@H]3CCC4=CC(=O)CC[C@]4(C)[C@H]3CC[C@]12C,,"inconclusive: 17.8 µM [inhibitor, partial curve] and inconclusive: 28.2 µM [inhibitor, partial curve] and inconclusive: 31.6 µM [inhibitor, single point]"
O=[N+]([O-])c1ccc(N2CCCCC2)c2ncccc12,,"inconclusive: 31.6 µM [inhibitor, partial curve]"
CC1CCCC(NC(=O)COC(=O)Cc2ccccc2)C1C (configuration not stated),,"inconclusive: 39.8 µM [inhibitor, partial curve]"
CCCC(=O)NC(Oc1ccc(Cl)cc1Cl)C(Cl)(Cl)Cl (configuration not stated),,"inconclusive: 28.2 µM [inhibitor, partial curve]"
O=C(c1ccc(Cl)cc1)C1CCCN(Cc2cccc3cnccc23)C1 (configuration not stated),,"inconclusive: 39.8 µM [inhibitor, partial curve]"
COc1cc(CNc2ccc3[nH]c(=O)[nH]c3c2)ccc1OCc1ccccc1C,,"inconclusive: 35.5 µM [inhibitor, single point]"
Nc1c(C(=O)NCC2CCCO2)c2nc3ccccc3nc2n1Cc1ccco1 (configuration not stated),inactive: 252%,
CCOc1cc(N2CCOCC2)c(OCC)cc1NC(=O)C1=NN(c2cccc(C)c2)C(=O)CC1,,"inconclusive: 17.8 µM [inhibitor, partial curve]"
O=C(COC(=O)CCc1c[nH]c2ccccc12)Nc1ccc([N+](=O)[O-])cc1,,"inconclusive: 50.1 µM [inhibitor, single point]"
FC(F)(F)c1cccc(NC2=NCCCS2)c1,,"inconclusive: 31.6 µM [inhibitor, single point]"
Cc1ccccc1NC(=O)Oc1cccc(OC(=O)c2ccccc2)c1,,"inconclusive: 56.2 µM [inhibitor, single point]"
CCN(CC)C(=O)Oc1ccc2cc(Br)ccc2c1,,"inconclusive: 50.1 µM [inhibitor, single point]"
O=S(=O)(Nc1ccc(-c2nc3ccccc3o2)cc1)c1ccccc1,,"inconclusive: 39.8 µM [inhibitor, single point]"
CC(C)CCn1c(N)c(C(=O)NCc2cccs2)c2nc3ccccc3nc21,,"inconclusive: 10 µM [inhibitor, partial curve]"
C#CCOS(=O)OC1CCCCC1Oc1ccc(C(C)(C)C)cc1 (configuration not stated),,"inconclusive: 28.2 µM [inhibitor, single point]"
CC1CN=C(Nc2ccc(F)c(Cl)c2)S1 (configuration not stated),,"inconclusive: 22.4 µM [inhibitor, partial curve]"
CN1C(=O)C(Cc2ccc(OCc3ccccc3)cc2)C(=O)N(C)C1=O,,"inconclusive: 28.2 µM [inhibitor, single point]"
Cc1ccc(-c2nc3ccccc3c(=O)n2-c2nccs2)cc1,inactive: -15.7%,
COC1CC(O[C@H]2/C(C)=C/CC3CC(C[C@]4(CCC(C)C(C5CCCCC5)O4)O3)OC(=O)[C@H]3C=C(C)/C(=N/O)C4OC/C(=C\C=C\[C@@H]2C)[C@@]43O)OC(C)C1O (some centres not stated),,"inconclusive: 50.1 µM [inhibitor, single point]"
